In PubChem BioAssay AID1345083 (National Center for Advancing Translational Sciences (NCATS), 2018):
Screen size: about 94,000 compounds; about 6,200 (6.6%) were called active. Inconclusive means that the source gave no clear call. Such entries were picked first, then a sample of the others. Calls follow the shape of the dose curve; as a rule, active = well fitted inhibition curve with a large enough effect; inconclusive = small, poorly fitted or top-dose-only effect; inactive = flat fitted curve, though single readings scatter. Potencies beside an inconclusive call are fits to weak or partial responses and may not hold up.

Experiment: Cytotoxic Profiling in HEK 293 Cell Line of Diverse Libraries Using Quantitative High-Throughput Screening; also: nearly all actives have a fitted effect of over 60% in size
Conditions: HEK 293 viability, ATP luminescence (CellTiter-Glo), 48-72 h; series mostly up to 115 µM
Outline: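 Viability of HEK 293 cells, plated at 250 cells/well, was judged by cellular ATP after compound treatment for 48 or 72 hr. Luminescence was imaged 10 min after CellTiter-Glo addition at room temperature.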
Potency is read from the fitted curve at half-maximal effect; tags tell the direction and shape of the fitted curve.

Row | SMILES | Potency
1 | Cc1noc2c(N3CCC(c4ccccc4)CC3)cc(-c3cccnc3)nc12 | inconclusive: 112 µM [inhibitor, single point]
2 | Oc1ccccc1CNC1(Cc2cc(-c3ccc(F)cc3)on2)COC1 | active: 100 µM
3 | COCCn1c(C)cc(C(=O)N2CCCC(c3[nH]ccc3C(N)=O)C2)c1C (stereo not drawn) | inactive
4 | CC(C)CC(=O)N1CCCCCNC(=O)[C@H]2C[C@H](C(=O)N3CCc4ccccc4C3)C[C@H]21 | inconclusive: 14.1 µM [inhibitor, full curve]
5 | O=C(c1cc2ccccc2[nH]1)N1CCN(C(=O)c2nnn3c2COC(c2ccc(Cl)cc2)C3)CC1 (stereo not drawn) | inconclusive: 25.1 µM [inhibitor, full curve]
6 | CCOc1cc(C(=O)N2CCC[C@H]2c2nc(-c3ccccc3Cl)no2)cc(OCC)c1OCC | inconclusive: 56.2 µM [inhibitor, partial curve, poor fit]
7 | CCn1cc(S(=O)(=O)N2CC(Oc3ccc(-c4nc(C)no4)cc3)C2)cn1 | inconclusive: 39.8 µM [inhibitor, partial curve]
8 | CC(C)C(=O)N1CCOC[C@H](Oc2ccc(C(F)(F)F)cc2)C1 | inconclusive: 89.1 µM [inhibitor, partial curve, poor fit]
9 | COc1ccc(CN2CCCC(CO)(CC3CC3)C2)c(F)c1 (stereo not drawn) | inconclusive: 10 µM [inhibitor, full curve, poor fit]
10 | CCc1[nH]c2ccc(CNC(=O)c3scc4c3OCCO4)cc2c1C | inconclusive: 44.7 µM [inhibitor, partial curve, poor fit]
11 | O=C(NC1CCN(Cc2cccc(-c3ccc(F)c(F)c3)c2)CC1)c1ccccc1 | inconclusive: 22.4 µM [inhibitor, full curve, poor fit]
12 | CCc1nc(-c2ccc(OC3CCN(Cc4cc(F)ccc4F)C3)cc2)no1 (stereo not drawn) | inconclusive: 44.7 µM [inhibitor, partial curve, poor fit]
13 | CNCc1ccc(OC(F)(F)F)cc1 | inactive
14 | OCC1(O)CCCN(Cc2ccccc2Cn2cccn2)C1 (stereo not drawn) | inactive
15 | CC(=O)N(C1CC1)C1CCOC2(CCN(C(=O)c3cc(C)n(C)n3)CC2)C1 (stereo not drawn) | inactive
16 | CNC(=O)c1cc[nH]c1C1CCCN(C(=O)CCc2c[nH]c3ccccc23)C1 (stereo not drawn) | inconclusive: 50.1 µM [inhibitor, partial curve, poor fit]
17 | COc1ccc(CNC(=O)c2ccc3c(c2)N(C)C2CCCN2C3=O)c(OC)c1 (stereo not drawn) | inconclusive: 70.8 µM [inhibitor, single point]
18 | CC(C)c1ccc(CC(=O)N2CCCc3ncc(C(=O)N(C)Cc4ccccc4)cc32)cc1 | inconclusive: 70.8 µM [inhibitor, partial curve, poor fit]
